# Experimental data: publication PMC4336329 (PLoS ONE, 2015)
# Out of some 310,000 compounds screened, about 14,000 (4.5%) showed an effect of 50% or more. The effect is printed as a negative number. The list shows a part of the results.
# Biological target: human ether-à-go-go-related gene (hERG) potassium channel (human, UniProt Q12809)
# Assay: primary screen, population patch clamp on CHO cells stably expressing hERG
# 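Also: peak tail current of the secondary pulse compared with the same well before compound.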
# Sequence of human ether-à-go-go-related gene (hERG) potassium channel (Q12809 whole entry, looked up): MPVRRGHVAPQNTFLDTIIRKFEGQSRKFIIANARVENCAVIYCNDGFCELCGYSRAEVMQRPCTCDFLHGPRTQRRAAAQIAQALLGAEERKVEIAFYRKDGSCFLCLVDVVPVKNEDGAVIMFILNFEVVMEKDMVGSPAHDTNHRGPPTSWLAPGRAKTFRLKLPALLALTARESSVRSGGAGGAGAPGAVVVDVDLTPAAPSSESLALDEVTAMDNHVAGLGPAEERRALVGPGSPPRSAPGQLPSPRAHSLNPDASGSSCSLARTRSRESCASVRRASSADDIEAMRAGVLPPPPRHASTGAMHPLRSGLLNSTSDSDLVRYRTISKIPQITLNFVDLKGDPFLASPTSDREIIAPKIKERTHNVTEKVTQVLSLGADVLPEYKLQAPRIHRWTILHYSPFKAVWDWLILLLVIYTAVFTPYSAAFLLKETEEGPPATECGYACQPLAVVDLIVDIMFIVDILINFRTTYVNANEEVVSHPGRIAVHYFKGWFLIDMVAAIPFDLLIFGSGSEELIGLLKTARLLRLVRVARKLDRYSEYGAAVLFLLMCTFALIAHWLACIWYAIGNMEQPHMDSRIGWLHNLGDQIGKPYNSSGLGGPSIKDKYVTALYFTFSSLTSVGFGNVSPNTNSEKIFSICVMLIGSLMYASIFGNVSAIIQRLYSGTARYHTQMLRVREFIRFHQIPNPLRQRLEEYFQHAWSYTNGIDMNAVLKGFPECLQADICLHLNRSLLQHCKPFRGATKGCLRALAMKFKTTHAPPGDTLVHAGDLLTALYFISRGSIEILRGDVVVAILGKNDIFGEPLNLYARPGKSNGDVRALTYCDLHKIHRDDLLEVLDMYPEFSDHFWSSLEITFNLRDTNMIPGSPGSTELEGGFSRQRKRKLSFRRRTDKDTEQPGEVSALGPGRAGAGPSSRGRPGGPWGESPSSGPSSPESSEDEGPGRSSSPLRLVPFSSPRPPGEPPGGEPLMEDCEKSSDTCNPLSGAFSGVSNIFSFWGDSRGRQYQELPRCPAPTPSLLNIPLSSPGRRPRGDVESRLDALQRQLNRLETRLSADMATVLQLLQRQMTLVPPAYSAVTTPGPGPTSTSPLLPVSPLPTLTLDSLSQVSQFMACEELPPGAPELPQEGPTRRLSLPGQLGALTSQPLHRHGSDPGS
row,SMILES,"hERG current change (%, negative = inhibition) at 10uM [%]"
1,CCc1noc(C)c1C(=O)N1CCN(S(=O)(=O)c2cc(C)ccc2C)CC1,-1.66
2,Cn1cc(Br)c(-c2cccc(NC(=O)CC(C)(C)CC(=O)O)c2)n1,11.8
3,O=C(NCc1ccc(F)cc1)Nc1ccc(Cl)cc1,15.1
4,S=C(NCCc1c[nH]c2ccccc12)NC1CCCC1,9.06
5,Cc1cc(C)c(Cn2c(C(=O)O)c(C=O)c3ccccc32)c(C)c1,1.4
6,Cc1cccc(-c2nc3ccccc3c(=O)n2NC(=S)N(C)C)c1,-7.76
7,COc1cc(SC)ccc1C(=O)N1CCN(c2ccc(O)cc2)CC1,-34.2
8,Cc1noc(C)c1S(=O)(=O)N(CC(=O)N1CCc2ccccc21)c1ccc(C(C)C)cc1,14.2
9,COc1ccc(-c2cc(CCCC(=O)NCCc3ccc(OC)cc3OC)no2)cc1,5.37
10,CC(=O)c1cc2c(=O)c3ccccc3oc2nc1C,1.37
11,Cc1cc(=O)oc2cc(O)c(N=Nc3ccccc3)cc12,9.68
12,CCNC(=O)/C(=C/c1ccc2c(c1)OCO2)NC(=O)c1ccc(Br)cc1,-58.3
13,Cc1nc2ccccc2n1/N=C/c1cccnc1,-7.62
14,CC1=Nc2ccc3ccccc3c2C1(C)C,11.4
15,O=C(CN1C(=O)NC2(CCCC2)C1=O)Nc1ccc(F)c([N+](=O)[O-])c1,-0.524
16,CCOC(=O)c1[nH]c(C)c(C(=O)N2CCN(c3ccccc3OC)CC2)c1C,10.6
17,COc1ccccc1N1CCN(C(=O)c2ccc(Cn3c(=S)[nH]c4cc5c(cc4c3=O)OCO5)cc2)CC1,21.3
18,CCN1CCN(c2ccc(NC(=O)c3cccc(OCc4ccccc4)c3)cc2)CC1,-13.3
19,CC(C)OC(=O)/C(=C\C=C\c1ccccc1)NC(=O)c1ccccc1,1.57
20,S=C(N/N=C1\C2CN3CCN(C2)CC1(c1ccccc1)C3)Nc1ccccc1,-12.7
21,CCOC(=O)c1cc(-c2nnc(-c3ccc(Cl)cc3)o2)c(C)nc1C,3.64
22,CCCC(C(=O)Nc1ccc(S(=O)(=O)Nc2ncccn2)cc1)c1ccccc1 (centres unmarked),12.7

row,SMILES,"hERG current change (%, negative = inhibition) at 10uM [%]"
1,O=C(NCC(c1ccco1)N1CCOCC1)c1cccc([N+](=O)[O-])c1 (centres unmarked),12.7
2,COc1cc(/C=C(\C#N)c2ccccn2)ccc1OCc1ccccc1,-40.8
3,c1ccc(-c2ccc3c(c2)NCCN3)cc1,9.52
4,CCCC1C(C#N)=C(N)Oc2cc(C)n(C)c(=O)c21 (centres unmarked),9.2
5,CC(C)(C)c1ccc(OCC(=O)NNC(=O)CCc2ccccc2)cc1,-4.88
6,CCOC(=O)C(=CNc1cc(C)ccn1)C(=O)OCC,-3.79
7,COc1ccc(-c2c3c(nc4sc(C(=O)Nc5ccccc5)c(N)c24)CCC3)cc1,0.447
8,COc1ccc(O)c(CN2CCC(n3nccc3NC(=O)C3CCCC3)CC2)c1,-50.8
9,CCn1c(CC(=O)Nc2cccc(OC)c2)nnc1SCC(=O)Nc1nccs1,-2.39
10,COc1ccc(CCNC(=O)c2ccc(N(C)S(=O)(=O)c3ccc(C)cc3)cc2)cc1OC,-3.57
11,CSc1nsc(SCC(=O)Nc2nc3ccccc3s2)n1,9.66
12,CCn1c(NC(=O)Nc2cccc(C)c2C)cc2sccc21,24.2
13,CN(CC(=O)Nc1ccccc1Cl)C(=O)COC(=O)c1nc(Cl)c(Cl)c(Cl)c1Cl,-4.91
14,NC(=O)c1ccc(Cn2c(C(=O)c3ccc(Cl)cc3)c3ccccc3[n+]2[O-])cc1,-9.74
15,CCCCNC(=O)Nc1cc(C(F)(F)F)c[nH]c1=O,-0.183
16,COc1ccc(-c2nnc(NC(=O)c3ccc([N+](=O)[O-])o3)o2)c(OC)c1,19.2
17,CCN(CC(=O)Nc1ccc(C(C)=O)cc1)CC(=O)Nc1cccc(OC)c1,-11.2
18,CC(=O)Nc1ccc(S(=O)(=O)NCC2CCC(C(=O)N3CCCCCC3)CC2)cc1 (centres unmarked),5.67
19,CCC(C)[C@H](NC(=O)N1CC(=O)Nc2ccccc21)C(=O)NC(C)CCc1ccccc1 (some centres unmarked),1.83
20,Cc1cccc(C(=O)NC(=S)Nc2ccc(S(=O)(=O)N(C)c3ccccc3)cc2)c1,3.85
21,CCCOc1cc(C)nc(-c2ccccc2O)n1,14.9
22,CCOC(=O)C1C(=O)NC(C)C1c1ccccc1 (centres unmarked),-4.44
